In PubChem BioAssay AID1259246 (Broad Institute, 2017):
Results filed as inconclusive are left out. Not every entry of the source has a single result; some have several. The list is limited to them. An entry can have further records. The values listed for one entry repeat one measurement in other runs, samples, wells, individuals or studies. A tag in brackets gives the origin of a value. Letters count within one entry.

System: Clostridioides difficile clinical isolate growth, OD600, 24 h
Test: antibacterial activity against Clostridioides difficile – 10-point retest, dose response (AID 1259246)

COc1ccc(CN(C)C[C@H]2Oc3c(NC(=O)Nc4ccc(C(F)(F)F)cc4)cccc3C(=O)N([C@@H](C)CO)C[C@H]2C)cc1 was tested, and the IC50 was 7.58 µM [sample A] and 238 nM [sample B] and 1.16 µM [sample C].
In the case of C[C@@H]1CN([C@@H](C)CO)C(=O)c2cccc(NC(=O)Nc3ccc(C(F)(F)F)cc3)c2O[C@@H]1CN(C)CC1CCCCC1, the IC50 is reported as 6.18 µM [sample A] and 612 nM [sample B] and 6.08 µM [sample C].
